About 520 (0.14%) of roughly 360,000 compounds were called active. The shares of active, inactive and inconclusive entries below differ from those in the screen. Calls follow the shape of the dose curve; as a rule, active = well fitted inhibition curve with a large enough effect; inconclusive = small, poorly fitted or top-dose-only effect; inactive = no such curve, though single readings can be large or run the other way. Potencies of inconclusive entries are left out as doubtful fits.
These compounds were tested against Rap guanine nucleotide exchange factor 3 (Homo sapiens) (UniProt O95398) (assay: qHTS for Antagonist of cAMP-regulated guanine nucleotide exchange factor 3 (EPAC1): primary screen). Conditions: EPAC1 GEF assay, Rap1b-BODIPY-GDP exchange fluorescence; activity change, negative = inhibition: at 115 µM (top of the series).
Also: nearly all actives have a fitted effect of over 50% in size.
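For activity change, negative = inhibition in this document: plate controls were vehicle for no effect and positive control for full effect.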
Potency is read from the fitted curve at half-maximal effect; tags tell the direction and shape of the fitted curve.

Sequence of UniProt O95398 (O95398 whole entry, looked up): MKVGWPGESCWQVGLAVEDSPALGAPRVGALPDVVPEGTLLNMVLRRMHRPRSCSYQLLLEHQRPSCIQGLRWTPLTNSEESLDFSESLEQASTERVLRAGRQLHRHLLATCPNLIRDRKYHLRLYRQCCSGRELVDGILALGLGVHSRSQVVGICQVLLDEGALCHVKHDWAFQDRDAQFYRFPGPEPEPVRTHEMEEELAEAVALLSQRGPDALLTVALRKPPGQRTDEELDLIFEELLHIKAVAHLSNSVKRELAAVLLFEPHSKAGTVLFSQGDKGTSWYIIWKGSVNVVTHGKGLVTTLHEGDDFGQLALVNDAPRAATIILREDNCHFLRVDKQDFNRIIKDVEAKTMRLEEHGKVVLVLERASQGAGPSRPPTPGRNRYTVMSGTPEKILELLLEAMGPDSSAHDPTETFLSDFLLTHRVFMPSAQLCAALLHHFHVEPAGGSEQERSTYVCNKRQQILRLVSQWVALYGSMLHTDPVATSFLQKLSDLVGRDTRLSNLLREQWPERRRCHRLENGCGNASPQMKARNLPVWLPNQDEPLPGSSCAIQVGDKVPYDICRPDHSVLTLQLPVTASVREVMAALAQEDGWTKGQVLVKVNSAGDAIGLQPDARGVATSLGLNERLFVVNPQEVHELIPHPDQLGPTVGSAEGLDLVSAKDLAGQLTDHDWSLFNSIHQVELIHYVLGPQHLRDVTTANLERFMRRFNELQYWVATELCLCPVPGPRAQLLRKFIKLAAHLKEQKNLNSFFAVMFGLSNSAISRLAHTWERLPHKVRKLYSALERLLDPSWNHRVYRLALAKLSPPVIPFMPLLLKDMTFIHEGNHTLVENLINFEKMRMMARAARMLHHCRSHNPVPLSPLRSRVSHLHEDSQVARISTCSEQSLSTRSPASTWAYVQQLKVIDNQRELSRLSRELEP

Row | Compound | Potency | activity change, negative = inhibition
1 | O=C(O)CC/C(=C\c1ccc(Cl)c([N+](=O)[O-])c1)c1nc2ccccc2s1 | inconclusive [inhibitor, partial curve] | –
2 | O=C(O)CN1C(=O)/C(=C\c2cccc(OCc3ccc(F)cc3)c2)SC1=S | – | inactive: -23.8%
3 | CC1CCN(S(=O)(=O)c2ccc(C(C)C)cc2)CC1 | inconclusive [inhibitor, single point] | –
4 | C[C@H](CO)N1C[C@H](C)[C@@H](CN(C)C(=O)Nc2ccc(C(F)(F)F)cc2)Oc2c(NC(=O)Cc3ccccc3)cccc2C1=O | – | inactive: -11.8%
5 | COc1cc(NC(=O)[C@@H](NC(=O)c2ccco2)C(C)C)c(OC)cc1NC(=O)c1ccccc1 | inconclusive [inhibitor, single point] | –
6 | Cc1ccc(-c2csc(NNC(=O)c3ccccc3)n2)cc1 | inconclusive [inhibitor, full curve, poor fit] | –
7 | CC1CCN(C(=S)c2cn(Cc3cccc(F)c3)c3ccccc23)CC1 | inconclusive [inhibitor, single point] | –
8 | CCNc1nnc(CCn2nc(C)c(Br)c2C)s1 | inconclusive [inhibitor, full curve] | –
9 | Cc1ccc(N(CCO)C(=S)Nc2ccccc2)cc1 | – | inactive: 3.65%
10 | Cc1nc(Nc2ccc(F)cc2)nc(Nc2ccc(F)cc2)c1[N+](=O)[O-] | inconclusive [inhibitor, full curve] | –
11 | Cn1nccc1-c1ccc(C(=O)Nc2cccc(NS(C)(=O)=O)c2)c2occc12 | inconclusive [inhibitor, full curve, poor fit] | –
12 | CCn1c(-c2ccc([N+](=O)[O-])cc2)n[nH]c1=S | inconclusive [inhibitor, partial curve] | –
13 | COc1ccc(/C=C2\SC(=S)N(CC(=O)OCC(=O)Nc3ccc(C)cc3Cl)C2=O)cc1 | inconclusive [inhibitor, single point] | –
14 | O=C(O)CC1C(=O)NCCN1Cc1ccc(F)c(F)c1 (stereo not drawn) | inconclusive [inhibitor, single point] | –
15 | O=CN1CCN(c2c([N+](=O)[O-])c(=O)oc3ccccc23)CC1 | inconclusive [inhibitor, partial curve, poor fit] | –
16 | CC(C)OC(=O)NC(c1ccccc1)C(Cl)(Cl)Cl (stereo not drawn) | inconclusive [inhibitor, single point] | –
17 | COC(=O)c1cc(S(=O)(=O)NCc2cc(OC)c(OC)c(OC)c2)cn1C | – | inactive: -11%
18 | O=C(O)CC(CC(=O)O)c1ccsc1 | inconclusive [inhibitor, single point] | –
